Assay results as given in US20220056119A1 (Regeneron, published 2022).

B1: Control 4 (Activin Type IIB receptor-Fc fusion: soluble Activin RIIB extracellular domain E23-P133 of NP_001097, Gly-Ser linker, C-terminal human IgG1 Fc) (Fc fusion)
chain: EAETRECIYYNANWELERTNQSGLERCEGEQDKRLHCYASWANSSGTIELVKKGCWLDDFNCYDRQECVATEENPQVYFCCCEGNFCNERFTHLPEAGGPEVTYEPPPTAPSG[gap - human IgG1 Fc]
B2: human ActRIIA expressed with a C-terminal human Fc tag (Fc fusion, not shown: a dimerising Fc or GST)
chain: not shown
notes: Bought reagent; also called hActRIIA-Fc; hActRIIA-hFc
B3: Control 4 (Activin Type IIB receptor-Fc fusion molecule) (Fc fusion)
chain: B1 chain
notes: also called ActRIIB-hFc; hActRIIB-hFc
B4: human ActRIIA expressed with a C-terminal human Fc tag (hActRIIA-Fc; R&D Systems, #340-R[…]) (Fc fusion, not shown: a dimerising Fc or GST)
chain: not shown
notes: Bought protein; also called hActRIIA-hFc
B5: Control 4 (Activin Type IIB receptor-Fc fusion molecule; soluble Activin RIIB receptor extracellular domain E23-P133 of NP_001097, Gly-Ser linker, C-terminal … (Fc fusion)
chain: B1 chain
notes: also called hActRIIB-hFc; hActRIIB-Fc

How the values were obtained:
[1] = molecular target: GDF8 (human, UniProt O14793 267-375); assay: cell-based or functional assay
[2] = molecular target: GDF11 (human, UniProt O95390 299-407); assay: cell-based or functional assay
[3] = molecular target: T1, Activin A (human, UniProt P08476 311-426); assay: SPR, 5 nM Activin A + 15 nM binder over hActRIIA-hFc surface
T1 construct: Homodimer of two betaA subunits; bought (R&D Systems #338-AC); also called inhibin-betaA dimer
T1 sequence: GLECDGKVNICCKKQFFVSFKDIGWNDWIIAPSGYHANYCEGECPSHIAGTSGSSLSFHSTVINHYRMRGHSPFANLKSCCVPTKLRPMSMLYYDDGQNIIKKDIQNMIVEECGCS
Experimental: (§1) The binding signal (RU) was measured at 150 seconds after the start of the injection, and this signal was subtracted by the measured RU value for a negative control reference surface to determine the specific binding signal.

[4] = molecular target: T1, Activin A; assay: SPR, 5 nM Activin A + 30 nM binder over hActRIIA-hFc surface
Experimental: as §1

[5] = molecular target: T1, Activin A; assay: SPR, 5 nM Activin A + 60 nM binder over hActRIIA-hFc surface
Experimental: as §1

[6] = molecular target: T1, Activin A; assay: SPR, 5 nM Activin A + 0.94 nM binder over hActRIIA-hFc surface
Experimental: as §1

[7] = molecular target: T1, Activin A; assay: SPR, 5 nM Activin A + 1.88 nM binder over hActRIIA-hFc surface
Experimental: as §1

[8] = molecular target: T1, Activin A; assay: SPR, 5 nM Activin A + 3.75 nM binder over hActRIIA-hFc surface
Experimental: as §1

[9] = molecular target: T1, Activin A; assay: SPR, 5 nM Activin A + 7.50 nM binder over hActRIIA-hFc surface
Experimental: as §1

[10] = molecular target: T1, Activin A; assay: SPR, 5 nM Activin A + 15 nM binder over Follistatin-288 surface
Experimental: as §1

[11] = molecular target: T1, Activin A; assay: SPR, 5 nM Activin A + 30 nM binder over Follistatin-288 surface
Experimental: as §1

[12] = molecular target: T1, Activin A; assay: SPR, 5 nM Activin A + 60 nM binder over Follistatin-288 surface
Experimental: as §1

[13] = molecular target: T1, Activin A; assay: SPR, 5 nM Activin A + 7.5 nM binder over Follistatin-288 surface
Experimental: as §1

[14] = molecular target: T1, Activin A; assay: SPR, 5 nM Activin A + 0.94 nM binder over Follistatin-288 surface
Experimental: as §1

[15] = molecular target: T1, Activin A; assay: SPR, 5 nM Activin A + 1.88 nM binder over Follistatin-288 surface
Experimental: as §1

[16] = molecular target: T1, Activin A; assay: SPR, 5 nM Activin A + 3.75 nM binder over Follistatin-288 surface
Experimental: as §1

[17] = molecular target: T1, Activin A; assay: SPR, 5 nM Activin A + 0 nM binder (no inhibitor) over Follistatin-288 surface
Experimental: as §1

[18] = molecular target: T1, Activin A; assay: SPR, 5 nM Activin A + 0.00 nM binder (no inhibitor) over hActRIIA-hFc surface
Experimental: as §1

[19] = molecular target: T2, Activin A (R&D Systems, #338-AC) (human, UniProt P08476 311-426); assay: SPR blocking: 5 nM Activin A + 15 nM binder over hActRIIB-hFc (Control 4) surface
T2 construct: Bought protein; also called inhibin-βA dimer; homodimer of two βA subunits
T2 sequence: T1 sequence
Experimental: as §1

[20] = molecular target: T2, Activin A (R&D Systems, #338-AC); assay: SPR blocking: 5 nM Activin A + 30 nM binder over hActRIIB-hFc (Control 4) surface
Experimental: as §1

[21] = molecular target: T2, Activin A (R&D Systems, #338-AC); assay: SPR blocking: 5 nM Activin A + 60 nM binder over hActRIIB-hFc (Control 4) surface
Experimental: as §1

[22] = molecular target: T2, Activin A (R&D Systems, #338-AC); assay: SPR blocking: 5 nM Activin A + 0.00 nM binder over hActRIIB-hFc (Control 4) surface
Experimental: as §1

[23] = molecular target: T2, Activin A (R&D Systems, #338-AC); assay: SPR blocking: 5 nM Activin A + 0.94 nM binder over hActRIIB-hFc (Control 4) surface
Experimental: as §1

[24] = molecular target: T2, Activin A (R&D Systems, #338-AC); assay: SPR blocking: 5 nM Activin A + 1.88 nM binder over hActRIIB-hFc (Control 4) surface
Experimental: as §1

[25] = molecular target: T2, Activin A (R&D Systems, #338-AC); assay: SPR blocking: 5 nM Activin A + 3.75 nM binder over hActRIIB-hFc (Control 4) surface
[26] = molecular target: T2, Activin A (R&D Systems, #338-AC); assay: SPR blocking: 5 nM Activin A + 7.50 nM binder over hActRIIB-hFc (Control 4) surface
Experimental: as §1

GDF11, sequence (O95390 299-407 limits assumed): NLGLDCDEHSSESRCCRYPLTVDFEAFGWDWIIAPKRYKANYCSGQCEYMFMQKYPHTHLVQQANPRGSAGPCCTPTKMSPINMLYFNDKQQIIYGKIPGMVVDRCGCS

| Binder | % bound RU w/ no inhibitor [3] [%] | % bound RU w/ no inhibitor [4] [%] | % bound RU w/ no inhibitor [5] [%] | % bound RU w/ no inhibitor [6] [%] | % bound RU w/ no inhibitor [7] [%] | % bound RU w/ no inhibitor [8] [%] | % bound RU w/ no inhibitor [9] [%] | % bound RU w/ no inhibitor [10] [%] | % bound RU w/ no inhibitor [11] [%] | % bound RU w/ no inhibitor [12] [%] | % bound RU w/ no inhibitor [13] [%] | % bound RU w/ no inhibitor [14] [%] | % bound RU w/ no inhibitor [15] [%] | % bound RU w/ no inhibitor [16] [%] | % bound RU w/ no inhibitor [17] [%] | % bound RU w/ no inhibitor [18] [%] | % bound RU w/ no inhibitor [19] [%] | % bound RU w/ no inhibitor [20] [%] | % bound RU w/ no inhibitor [21] [%] | % bound RU w/ no inhibitor [22] [%] | further results |
| --- | --- | --- | --- | --- | --- | --- | --- | --- | --- | --- | --- | --- | --- | --- | --- | --- | --- | --- | --- | --- | --- |
| B1 | – | – | – | – | – | – | – | – | – | – | – | – | – | – | – | – | – | – | – | – | IC50, blockade of 0.50 nM GDF8 in A204/CAGAx12-Luc reporter bioassay [1]: 298 pM; IC50, blockade of 0.40 nM GDF11 in A204/CAGAx12-Luc reporter bioassay [2]: 214 pM |
| B2 | 50 | 5 | 3 | 236 | 222 | 188 | 128 | 60 | 11 | 13 | 116 | 156 | 148 | 138 | 100 | 100 | – | – | – | – | – |
| B3 | 51 | 2 | 1 | 276 | 266 | 231 | 160 | 43 | 1 | 1 | 120 | 169 | 163 | 151 | 100 | 100 | – | – | – | – | – |
| B4 | – | – | – | – | – | – | – | – | – | – | – | – | – | – | – | – | 56 | 5 | 5 | 100 | % bound RU w/ no inhibitor [23]: 131%; % bound RU w/ no inhibitor [24]: 129%; % bound RU w/ no inhibitor [25]: 127%; % bound RU w/ no inhibitor [26]: 113% |
| B5 | – | – | – | – | – | – | – | – | – | – | – | – | – | – | – | – | 51 | 3 | 2 | 100 | % bound RU w/ no inhibitor [23]: 149%; % bound RU w/ no inhibitor [24]: 148%; % bound RU w/ no inhibitor [25]: 144%; % bound RU w/ no inhibitor [26]: 130% |
